Over roughly 33,000 sequences, “E-score (-0.5 to 0.5)” has its median near -0.021; the highest 2% begin near 0.32. Some of the results follow.
These sequences were tested against T1, Zap1 (UniProt P47043) (assay: PBM E-score (8-mer binding enrichment) (E-score (-0.5 to 0.5)); higher = stronger / more preferred TF binding; most listed sequences are background and not binding sites). Settings: protein concentration: 200 nM; construct: GST-full length.
T1 sequence: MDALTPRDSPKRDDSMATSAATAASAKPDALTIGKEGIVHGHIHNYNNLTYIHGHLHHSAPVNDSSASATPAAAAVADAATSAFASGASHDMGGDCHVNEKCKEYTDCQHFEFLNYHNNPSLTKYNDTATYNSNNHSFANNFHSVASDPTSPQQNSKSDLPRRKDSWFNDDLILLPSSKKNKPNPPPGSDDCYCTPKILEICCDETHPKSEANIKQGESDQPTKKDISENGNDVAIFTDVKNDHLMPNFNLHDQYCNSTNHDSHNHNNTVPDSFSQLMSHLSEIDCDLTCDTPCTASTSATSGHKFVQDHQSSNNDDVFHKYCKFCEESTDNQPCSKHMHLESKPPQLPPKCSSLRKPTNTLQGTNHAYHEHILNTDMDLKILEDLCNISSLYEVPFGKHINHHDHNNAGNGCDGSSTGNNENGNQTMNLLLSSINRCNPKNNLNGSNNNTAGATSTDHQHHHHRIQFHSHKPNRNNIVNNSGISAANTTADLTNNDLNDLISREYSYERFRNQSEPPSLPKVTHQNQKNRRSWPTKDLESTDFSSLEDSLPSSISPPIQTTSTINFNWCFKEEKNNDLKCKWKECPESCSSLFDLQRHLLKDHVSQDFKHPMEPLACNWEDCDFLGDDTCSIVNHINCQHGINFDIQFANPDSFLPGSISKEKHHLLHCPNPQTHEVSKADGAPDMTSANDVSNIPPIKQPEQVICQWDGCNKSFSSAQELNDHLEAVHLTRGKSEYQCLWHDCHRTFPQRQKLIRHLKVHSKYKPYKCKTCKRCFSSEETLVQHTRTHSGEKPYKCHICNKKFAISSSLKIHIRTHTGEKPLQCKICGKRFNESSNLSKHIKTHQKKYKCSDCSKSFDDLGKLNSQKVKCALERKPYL
How it was run: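 For each ungapped eight-base word taken together with its reverse complement, the Universal PBM Analysis Suite assigned an E-score. Binding data came from GST-tagged yeast transcription factors, applied at about 100-200 nM, on universal all-10-mer Agilent arrays made double-stranded by primer extension. Fluorescent anti-GST marked bound protein, and scans were normalised with masliner.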

Sequence	PBM E-score
AGCGCAGG	-0.19
ACAGTCTC	-0.289
CGGCCACG	0.113
CGATCACG	0.116
CGCGAAGC	-0.0242
CAGCAGGC	-0.0691
CGGACTAC	-0.0551
ACTTAGAG	-0.121
GTAGTCGA	-0.0355
AGTACATG	0.0226
GGGTGTAC	0.105
ACCTGACA	0.178
ACTATGTG	-0.0917
ATTACTGG	-0.164
CCCAGTCA	-0.208
CCGGATCC	-0.268
CAGCGGTC	-0.0186
ACTTCCGG	-0.0978
ACCTGAAA	0.205
AAGGGAGC	-0.0653
AAGCATGT	-0.087
GATAAAGC	-0.0674
CAAACGAA	0.138
AGTGGTCA	0.197
ATGAGGTC	0.226

Sequence	PBM E-score
AACAAACT	0.152
CCACCCGG	-0.0636
ACTCAAAG	0.154
CCTCGACC	-0.056
CTCAGCGA	-0.0401
AAGCGTGA	-0.0199
CCGGATGA	-0.0526
AGCAAGCC	-0.304
CTACCGAG	0.0402
ACATGCAG	0.0917
CTTTAATA	0.201
AGACAAAC	-0.0937
CGTCGAAC	-0.196
CTAGTGGC	-0.0328
AATAGGCC	-0.0456
AACAGGTA	0.226
CAGTTCCG	-0.0834
ATGAGTCC	-0.0978
ATAAGCGC	-0.101
AAATTTGG	-0.0258
GCCAGTCC	-0.145
AGAGCCAT	0.0165
AGACCCCG	0.251
CTGCACTC	-0.0172
CCCACGTC	-0.213

Sequence	PBM E-score
CTTGCACA	0.0573
GACAAAGC	-0.143
AATGAGGG	-0.0229
CGCGGCAG	-0.049
AGCCCGAC	-0.0908
ACCTATCT	0.0828
ACTGTTTC	-0.197
GACCCCTA	0.276
GATCGAGC	-0.0441
AGCCTAAG	-0.216
TATCGATA	0.285
ACCTGGAT	-0.057
GGAGTAGA	-0.044
ACGCGTAT	-0.0739
GTTGTCTA	-0.00927
ATCGACAG	-0.0839
CACACAGA	0.0893
AGCTGGTC	-0.0085
AACCTATA	0.374
CGTCTAAG	-0.0894
ACTGTCCA	-0.169
CCAAGACG	-0.202
CTTGTCGA	-0.019
CAATCTGA	-0.0798
CTTTGTCC	0.0267

Sequence	PBM E-score
CAGCTCAC	-0.203
ACCAACAG	0.0987
ACCCCGCC	0.281
CCCGCCCA	0.0532
AACCTGGT	0.306
ACTAGCCT	-0.103
ACACCCCT	0.218
ACCAGGAA	0.0661
AGTGGCGC	-0.213
GCGTACCA	0.0288
GGCAGACC	-0.192
AGGGTGTG	0.264
GAGTCGGC	-0.329
CGTCAGAA	-0.212
CTCTTTCA	-0.0651
ACCTTCGT	0.156
CCGATCGG	0.13
AAATGCTT	-0.0853
AATCCGCC	-0.349
CTCCATGC	-0.229
CCCCTTCA	-0.105
ACGTTAGT	-0.0118
ATCCAGAT	-0.0341
ACGGATGA	-0.156
TCAGCACA	-0.0282

Sequence	PBM E-score
GTTCGGAA	0.12
GGCTAGGA	-0.233
CAGATCCG	-0.116
AAATAGCC	-0.0388
CACAACTG	-0.0405
CTTGGAAC	0.0519
GGCAGCAC	-0.298
GGTCCGGA	0.0312
CGATGTTC	-0.08
TAATAATA	0.217
CTATACAA	-0.0225
ATTGGTGC	-0.0663
GCGGCGCA	-0.226
GAACAAGA	0.00965
GTTCTGAA	0.236
CGGAGCGC	-0.253
TAGGCTCA	-0.16
CAGCACCA	-0.188
CGGGCGTA	-0.302
CGGTCTAA	0.0414
ACTAAGTG	-0.0598
TCTTGACA	0.0781
GAGGAGCA	-0.223
ATCGTTTC	-0.0438
GCAAAGCC	-0.306

Sequence	PBM E-score
AAAACTAG	0.00896
CCAGAACA	-0.00016
CACGGTAC	0.246
CATTATCC	0.0892
AAAGATGG	-0.154
GCGTTCTA	-0.113
GAGCATGA	-0.176
GAAGTATA	-0.00274
CCTGCACC	-0.337
GACCATGA	0.252
ACCAGACA	0.023
CTAGTCGA	-0.13
TGAATCCA	0.0119
CTGAACCA	-0.126
AACGACAT	0.00264
AAAAAGTC	0.0716
CAACGAGC	-0.156
AATCGTGC	0.0547
GTCCAAAA	0.0828
CTTTCAGA	0.125
AAGGCTGC	0.0851
TGCAGACA	-0.0367
ACTTACCT	0.0127
CGCCAATA	0.104
CGACGGCG	-0.272

Sequence	PBM E-score
AATGCCTA	-0.214
GAAGTAAA	0.0987
CTAGGCGC	-0.261
TCATGGGA	0.0596
AGTGAGAC	-0.16
CGAGTCAG	-0.103
CTATACCA	0.0451
AGTAGTAT	0.069
GGACGTAC	-0.189
AACTTGAT	0.171
CACTCCAG	-0.0273
ACAGCAGC	-0.159
CAGCTGAG	-0.16
GATCCATA	-0.00324
ACTGACTC	-0.189
TGCTTGAA	0.0363
ACCCGGTA	0.329
GAACGCCA	-0.209
CCTCTTGC	-0.093
GAGGTTCC	0.223
CTGGGTTA	0.369
CTGAGGTC	-0.00051
